# Measurements: the supplement of paper PMC8728848
# The list shows a part of the results.
# B1: DC-ASGPR S+GEE (Homo sapiens) (protein)
# chain: MTRTYENFQYLENKVKVQGFKNGPLPLQSLLQRLRSGPCHLLLSLGLGLLLLVIICVVGFQNSKFQRDLVTLRTDFSNFTSNTVAEIQALTSQGSSLEETIASLKAEVEGFKQERQAVHSEMLLRVQQLVQDLKKLTCQVATINNNGEEASTEGTCCPVNWVEHQDSCYWFSHSGMSWAEAEKYCQLKNAHLVVINSREEQNFVQKYLGSAYTWMGLSDPEGAWKWVDGTDYATGFQNWKPGQPDDWQGHGLGGGEDCAHFHPDGRWNDDVCQRPYHWVCEAGLGQTSQESH
# Experiments:
# Assay in all cases: glycan array binding signal (z-score within array); higher = stronger binding
# Settings in all cases: glycan notation: IUPAC condensed, linker removed
# [1] = biological target: GlcNAc(b1-4)GlcNAc(b1-4)GlcNAc(b1-4)GlcNAc(b1-4)GlcNAc
# Summary of the method: (§1)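 The binding signal is a Z-score computed within each array. Data were drawn from 3228 arrays in the Consortium for Functional Glycomics database, restricted to those with a known protein sequence. Scores were averaged over arrays of the same protein sequence at different concentrations or buffers, and over linkers, and negative values can be taken as non-binding.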
# [2] = biological target: GlcNAc(b1-4)GlcNAc(b1-4)GlcNAc(b1-4)GlcNAc(b1-4)GlcNAc(b1-4)GlcNAc
# Summary of the method: as §1
# [3] = biological target: GlcNAc(b1-4)[GlcNAc(b1-6)]GalNAc
# Summary of the method: as §1
# [4] = biological target: GlcNAc(b1-6)Gal(b1-4)GlcNAc
# Summary of the method: as §1
# [5] = biological target: GlcNAc(b1-6)GalNAc
# Summary of the method: as §1
# [6] = biological target: GlcNAc6S(b1-3)Gal(b1-4)GlcNAc
# Summary of the method: as §1
# [7] = biological target: Kdn(a2-3)Gal(b1-3)GalNAc
# Summary of the method: as §1
# [8] = biological target: Kdn(a2-3)Gal(b1-3)GlcNAc
# Summary of the method: as §1
# [9] = biological target: Kdn(a2-3)Gal(b1-4)Glc
# Summary of the method: as §1
# [10] = biological target: Kdn(a2-3)Gal(b1-4)GlcNAc
# Summary of the method: as §1
# [11] = biological target: Kdn(a2-3)Gal(b1-4)[Fuc(a1-3)]GlcNAc
# Summary of the method: as §1
# [12] = biological target: Kdn(a2-6)Gal(b1-4)GlcNAc
# Summary of the method: as §1
# [13] = biological target: Man(a1-2)Man(a1-2)Man(a1-3)Man
# Summary of the method: as §1
# [14] = biological target: Man(a1-2)Man(a1-2)Man(a1-6)[Man(a1-3)]Man
# Summary of the method: as §1
# [15] = biological target: Man(a1-2)Man(a1-3)Man
# Summary of the method: as §1
# [16] = biological target: Man(a1-2)Man(a1-3)[Man(a1-2)Man(a1-6)]Man
# Summary of the method: as §1
# [17] = biological target: Man(a1-2)Man(a1-3)[Man(a1-2)Man(a1-6)]Man(a1-6)[Man(a1-2)Man(a1-2)Man(a1-3)]Man
# Summary of the method: as §1
# [18] = biological target: Man(a1-2)Man(a1-3)[Man(a1-2)Man(a1-6)]Man(a1-6)[Man(a1-2)Man(a1-2)Man(a1-3)]Man(b1-4)GlcNAc(b1-4)GlcNAc
# Summary of the method: as §1
# [19] = biological target: Man(a1-2)Man(a1-3)[Man(a1-6)]Man(a1-6)[Man(a1-2)Man(a1-3)]Man(b1-4)GlcNAc(b1-4)GlcNAc
# Summary of the method: as §1
# [20] = biological target: Man(a1-2)Man(a1-6)[Man(a1-3)]Man(a1-6)[Man(a1-2)Man(a1-2)Man(a1-3)]Man
# Summary of the method: as §1
# [21] = biological target: Man(a1-2)Man(a1-6)[Man(a1-3)]Man(a1-6)[Man(a1-2)Man(a1-2)Man(a1-3)]Man(b1-4)GlcNAc(b1-4)GlcNAc
# Summary of the method: as §1
# [22] = biological target: Man(a1-3)[Man(a1-6)]Man
# Summary of the method: as §1
# [23] = biological target: Man(a1-3)[Man(a1-6)]Man(a1-6)[Man(a1-2)Man(a1-3)]Man(b1-4)GlcNAc(b1-4)GlcNAc
# Summary of the method: as §1
# [24] = biological target: Man(a1-3)[Man(a1-6)]Man(a1-6)[Man(a1-3)]Man
# Summary of the method: as §1
# [25] = biological target: Man(a1-3)[Man(a1-6)]Man(a1-6)[Man(a1-3)]Man(b1-4)GlcNAc(b1-4)GlcNAc
# Summary of the method: as §1
# [26] = biological target: Man(a1-3)[Man(a1-6)]Man(b1-4)GlcNAc(b1-4)GlcNAc
# Summary of the method: as §1
# [27] = biological target: Man(a1-3)[Man(a1-6)]Man(b1-4)GlcNAc(b1-4)[Fuc(a1-6)]GlcNAc
# Summary of the method: as §1
# [28] = biological target: Man(a1-6)Man
# Summary of the method: as §1
# [29] = biological target: Man(b1-4)GlcNAc
# Summary of the method: as §1
# [30] = biological target: MurNAc(b1-4)GlcNAc
# Summary of the method: as §1
# [31] = biological target: Neu5Ac(a2-3)Gal
# Summary of the method: as §1
# [32] = biological target: Neu5Ac(a2-3)Gal(b1-3)GalNAc
# Summary of the method: as §1
# [33] = biological target: Neu5Ac(a2-3)Gal(b1-3)GalNAc(b1-3)Gal(a1-4)Gal(b1-4)Glc
# Summary of the method: as §1
# [34] = biological target: Neu5Ac(a2-3)Gal(b1-3)GalNAc(b1-4)Gal(b1-4)Glc
# Summary of the method: as §1
# [35] = biological target: Neu5Ac(a2-3)Gal(b1-3)GalNAc(b1-4)[Neu5Ac(a2-3)]Gal(b1-4)Glc
# Summary of the method: as §1
# [36] = biological target: Neu5Ac(a2-3)Gal(b1-3)GalNAc(b1-4)[Neu5Ac(a2-8)Neu5Ac(a2-3)]Gal(b1-4)Glc
# Summary of the method: as §1
# [37] = biological target: Neu5Ac(a2-3)Gal(b1-3)GalNAc6S
# Summary of the method: as §1
binder,measurement,setting,value
B1,glycan array binding signal (z-score),[1],-0.341
same,glycan array binding signal (z-score),[2],-0.22
same,glycan array binding signal (z-score),[3],-0.287
same,glycan array binding signal (z-score),[4],-0.326
same,glycan array binding signal (z-score),[5],3.74
same,glycan array binding signal (z-score),[6],-0.351
same,glycan array binding signal (z-score),[7],-0.289
same,glycan array binding signal (z-score),[8],-0.257
same,glycan array binding signal (z-score),[9],-0.189
same,glycan array binding signal (z-score),[10],-0.485
same,glycan array binding signal (z-score),[11],-0.345
same,glycan array binding signal (z-score),[12],-0.333
same,glycan array binding signal (z-score),[13],-0.347
same,glycan array binding signal (z-score),[14],-0.355
same,glycan array binding signal (z-score),[15],-0.333
same,glycan array binding signal (z-score),[16],-0.281
same,glycan array binding signal (z-score),[17],-0.307
same,glycan array binding signal (z-score),[18],-0.231
same,glycan array binding signal (z-score),[19],-0.267
same,glycan array binding signal (z-score),[20],-0.327
same,glycan array binding signal (z-score),[21],-0.317
same,glycan array binding signal (z-score),[22],-0.34
same,glycan array binding signal (z-score),[23],-0.252
same,glycan array binding signal (z-score),[24],-0.368
same,glycan array binding signal (z-score),[25],-0.35
same,glycan array binding signal (z-score),[26],-0.021
same,glycan array binding signal (z-score),[27],-0.295
same,glycan array binding signal (z-score),[28],-0.36
same,glycan array binding signal (z-score),[29],-0.339
same,glycan array binding signal (z-score),[30],-0.355
same,glycan array binding signal (z-score),[31],-0.207
same,glycan array binding signal (z-score),[32],-0.249
same,glycan array binding signal (z-score),[33],-0.294
same,glycan array binding signal (z-score),[34],-0.336
same,glycan array binding signal (z-score),[35],-0.329
same,glycan array binding signal (z-score),[36],-0.272
same,glycan array binding signal (z-score),[37],-0.291
